Reference: PubChem BioAssay AID686978 (National Center for Advancing Translational Sciences (NCATS), 2013)
“And” between values parts separate entries of the source, which are not always exact repeats. Identical values can stand only once. Out of some 420,000 compounds screened, about 64,000 (15%) were called active. The shares of active, inactive and inconclusive entries below differ from those in the screen. The call rests on the fitted dose curve; in most records, active means well fitted inhibition curve with a large enough effect; inconclusive means small, poorly fitted or top-dose-only effect; inactive means flat fitted curve, though single readings scatter. Potencies beside an inconclusive call are fits to weak or partial responses and may not hold up.

test: qHTS for Inhibitors of human tyrosyl-DNA phosphodiesterase 1 (TDP1): qHTS in cells in absence of CPT; conditions: DT40 Tdp1-/- hTDP1 cells, no CPT, ATP luminescence, 48 h; series mostly up to 46.2 µM; further: nearly all actives have a fitted effect of over 55% in size
Method in brief: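 Cells were dispensed at 400 per well, compounds added by pin tool, plates incubated ≥48 hr at 37 °C, then CellTiter-Glo added for 30 min at room temperature before luminescence reading. Line: DT40 Tdp1-/- complemented with hTDP1; camptothecin omitted.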
Potency means the concentration at half of the fitted maximal effect; tags describe the fitted curve by direction and shape.

Row | Structure (SMILES) | Potency
1 | O=C(N/N=C/c1c[nH]c2ccccc12)c1cc(-c2ccccc2)n[nH]1 | inactive
2 | CCOc1ccccc1C1CC(=O)NC(SCC(=O)Nc2nccs2)=C1C#N (stereo unspecified) | inconclusive: 32.6 µM [inhibitor, single point]
3 | COc1c(OC(C)=O)c(=O)n2c3ccccc3c3ccnc1c32 | inconclusive: 23.1 µM [inhibitor, single point]
4 | CCOc1ccc(OCC)c(NC(=O)c2cc(CN3CCOCC3)on2)c1 | inconclusive: 16.4 µM [inhibitor, single point]
5 | Cc1nc2ccccc2nc1N/N=C/c1ccc(O)cc1O | active: 4.11 µM
6 | COC(=O)C1C2CCCCC1C(=O)O2 (stereo unspecified) | inconclusive: 29.1 µM [inhibitor, single point]
7 | CCCCN1C2CCCC1CC(NC(=O)c1cccc(OC)c1)C2 (stereo unspecified) | inactive
8 | CCC(Cn1nnc2ccccc2c1=O)NC(=O)Nc1ccc(C)cc1 (stereo unspecified) | inconclusive: 8.2 µM [inhibitor, partial curve, poor fit]
9 | Cc1ccc(NS(=O)(=O)c2ccccc2[N+](=O)[O-])cc1C | inactive
10 | C=CCN(C(=O)c1cc(C)cc(C)c1)C1(C(=O)Nc2ccccc2)CCN(C(C)C)CC1 | inconclusive: 7.31 µM [inhibitor, partial curve]
11 | Cc1ccc(NC(=O)CCNS(=O)(=O)c2ccc(Br)s2)cc1 | inconclusive: 29.1 µM [inhibitor, single point] and inconclusive: 23.1 µM [inhibitor, single point]
12 | O=C(COc1ccc2ccccc2c1)N1CCN(C(=O)c2cccnc2)CC1 | inactive
13 | CCc1cccc(NC(=O)c2cnn(-c3ccccc3)c2C)c1 | inactive
14 | CCOC(=O)C1CCCN(C(=O)c2cccc(NC(=O)c3nsc4ccccc34)c2)C1 (stereo unspecified) | active: 20.6 µM
15 | COc1ccc(NC(=S)N(CCCN2CCC(C)CC2)Cc2cccs2)cc1 | inconclusive: 14.6 µM [inhibitor, single point]
16 | C1=Cc2ccccc2Nc2ccccc21 | inactive
17 | O=C(Nc1ccccc1Cl)c1cc(S(=O)(=O)N2CCC3(CC2)OCCO3)ccc1F | inconclusive: 29.1 µM [inhibitor, single point]
18 | CNCCCC1c2ccccc2C=Cc2ccccc21 | active: 11.4 µM and active: 23.1 µM
19 | O=C(Nc1ccccc1)Nc1ccc(Nc2ccccc2)cc1 | active: 7.31 µM
20 | NC(Cc1ccc(C(F)(F)F)cc1)c1csc(Nc2ccc(C(=O)NCCCO)cn2)n1 (stereo unspecified) | active: 16.4 µM
21 | CCOc1nc(NCCO)nc(Nc2cc(Cl)ccc2OC)n1 | inconclusive: 25.9 µM [inhibitor, single point]
